These results are taken from patent EP0207453B1 (priority 1985, dated 1987).

Marks after values point to notes of the source that are not given here.

Assay [1] has as its system human rhinovirus (HRV) serotypes, namely HRV-2, -1A, -1B, -6, -14, -21, -22, -15, -25, -30, -50, -67, -89, -86 and -41. Nature of the assay: standard plaque reduction assay, panel of fifteen human rhinovirus serotypes. Type of assay: cell-based. The conditions noted are these: HeLa (Ohio) cells, 15 serotypes unless number N in parentheses after the figure, unit printed in b78 only. In general terms: In a plaque reduction assay, fewer plaques than in the control indicate reduced infectivity or spread.

Consider `Cc1cc(CCCCCOc2c(C)cc(-c3cccs3)cc2C)on1` [7(b), 5-{5-[2,6-Dimethyl-4-(2-thienyl)phenoxy]pentyl}-3-methylisoxazole], for which the “MIC₈₀ (N) (Rhinovirus)” value in assay [1] was determined as 0.94 micrograms per milliliter.
On the same count and under the same terms, the result for `Cc1cc(CCCCCOc2c(C)cc(-c3ccc(C)s3)cc2C)on1` [9(b), 5-{5-[2,6-Dimethyl-4-(5-methyl-2-thienyl)phenoxy]pentyl}-3-methylisoxazole] reads 25.65 (6) micrograms per milliliter; that for `Cc1cc(CCCCCOc2c(Cl)cc(-c3ccc(C)s3)cc2Cl)on1` [10(b), 5-{5-[2,6-Dichloro-4-(5-methyl-2-thienyl)phenoxy]pentyl}-3-methylisoxazole], 0.7 micrograms per milliliter.
Still for that read-out and setting: next, `Cc1cc(CCCCCOc2c(C)cc(-c3ccsc3)cc2C)on1` [11(b), 5-{5-[2,6-Dimethyl-4-(3-thienyl)phenoxy]pentyl}-3-methylisoxazole]: 0.605 (14) micrograms per milliliter.
As to `Cc1cc(CCCCCOc2c(C)cc(-c3cccn3C)cc2C)on1` [13(b), 5-{5-[2,6-Dimethyl-4-(1-methyl-1H-pyrrol-2-yl)phenoxy]pentyl}-3-methylisoxazole], the “MIC₈₀ (N) (Rhinovirus)” value against HRV-2 is “.07 (1)^(a) micrograms per milliliter”.
For the molecule `Cc1cc(CCCCCOc2c(C)cc(-c3ccccn3)cc2C)on1` [15(b), 5-{5-[2,6-Dimethyl-4-(2-pyridinyl)phenoxyl]pentyl}-3-methylisoxazole], the “MIC₈₀ (N) (Rhinovirus)” value in assay [1] is given as 1.86 (5) micrograms per milliliter.
On the same count and under the same terms, next, `Cc1cc(CCCCCOc2c(Cl)cc(-c3nc(C)c(C)s3)cc2Cl)on1` [21 c]: 0.91 micrograms per milliliter; `Cc1cc(CCCCCOc2c(Cl)cc(-c3nnn(C)n3)cc2Cl)on1` [23 (1st compd.), 5-{5-[2,6-dichloro-4-(2-methyl-2H-tetrazol-5-yl)phenoxy]pentyl}-3-methylisoxazole]: 0.225 (4) micrograms per milliliter; `Cc1cc(CCCCCOc2c(Cl)cc(-c3cccs3)cc2Cl)on1` [Example 1(c), 5-{5-[2,6-Dichloro-4-(2-thienyl)phenoxy]pentyl}-3-methylisoxazole]: 0.44 micrograms per milliliter.
Take `Cc1cc(CCCCCOc2ccc(-c3cccs3)cc2)on1` [Example 2, 3-Methyl-5-{5-(4-(2-thienyl)phenoxy]pentyl}-isoxazole]: the “MIC₈₀ (N) (Rhinovirus)” value in assay [1] came out at 1.33 micrograms per milliliter.
Still for that read-out and setting: the result for `Cc1cc(CCCCCOc2ccc(-c3nc(C)c(C)s3)cc2)on1` [Example 3, 3-Methyl-5-{5-[4-(4,5-dimethyl-2-thiazolyl)phenoxy]-pentyl}isoxazole] reads 0.57 micrograms per milliliter; that for `Cc1cc(CCCCCOc2ccc(-c3nc4ccccc4s3)cc2)on1` [Example 4, 2-{4-[[5-(3-Methyl-5-isoxazolyl)pentyl]oxy]phenyl}-benzothiazole], 2.675 (4) micrograms per milliliter.
As for `Cc1cc(CCCCCOc2ccc(-c3nc4ccccc4o3)cc2)on1` [Example 6, 5-{5-[4-(2-Benzoxazolyl)phenoxy]pentyl}-3-methylisoxazole], in assay [1], the “MIC₈₀ (N) (Rhinovirus)” value is 0.94 micrograms per milliliter.
The same measure, in the same setting: next, `Cc1cc(CCCCCOc2c(Cl)cc(-c3ccsc3)cc2Cl)on1` [Example 12, 5-{5-[2,6-Dichloro-4-(3-thienyl)phenoxy]pentyl}-3-methylisoxazole]: 1.14 micrograms per milliliter.
Consider `Cc1cc(CCCCCOc2c(Cl)cc(-c3cccn3C)cc2Cl)on1` [Example 14, 5-{5-[2,6-Dichloro-4-(1-methyl-1H-pyrrol-2-yl)phenoxy]-pentyl}-3-methylisoxazole], for which, in assay [1], the “MIC₈₀ (N) (Rhinovirus)” value came out at 1.6 micrograms per milliliter.
The same measure, in the same setting: next, `Cc1cc(CCCCCOc2c(Cl)cc(-c3ccccn3)cc2Cl)on1` [Example 16, 5-{5-[2,6-Dichloro-4-(2-pyridinyl)phenoxy]pentyl}-3-methylisoxazole]: 0.56 (13) micrograms per milliliter.
The same measure, in the same setting: the result for `Cc1cc(CCCCCOc2c(Cl)cc(-c3ccncc3)cc2Cl)on1` [Example 19] reads 25.33 (6) micrograms per milliliter.
The same measure, in the same setting: the result for `Cc1cc(CCCCCOc2ccc(-c3nccs3)cc2)on1` [Example 20, 3-Methyl-5-{5-[4-(2-thiazolyl)phenoxy]pentyl}-isoxazole] reads 1.2 micrograms per milliliter.
With `Cc1cc(CCCCCOc2c(Cl)cc(-c3nnnn3C)cc2Cl)on1` [Example 23 (2nd compd.), 5-{5-[2,6-dichloro-4-(1-methyl-1H-tetrazol-5-yl)phenoxy]pentyl}-3-methylisoxazole], the “MIC₈₀ (N) (Rhinovirus)” value in the assay with HRV-2 was 0.4 (1) ^(a) micrograms per milliliter.
